Source: paper PMC8376998
Results are given in words; binding and its absence hold for the method and conditions named. For part of these data: In cells and extracts the contact can be indirect. Some entries that bind do so weakly or less than the wild type.

Chains of the proteins cited; added tags and fusions are not shown. Lines headed by an entry give the natural chain unless they say otherwise; changes in a name come on top. A line that says so, or that is headed by a name, gives the form on record, which may keep a tag or linker. Residues count along the entry.
UniProt Q16637: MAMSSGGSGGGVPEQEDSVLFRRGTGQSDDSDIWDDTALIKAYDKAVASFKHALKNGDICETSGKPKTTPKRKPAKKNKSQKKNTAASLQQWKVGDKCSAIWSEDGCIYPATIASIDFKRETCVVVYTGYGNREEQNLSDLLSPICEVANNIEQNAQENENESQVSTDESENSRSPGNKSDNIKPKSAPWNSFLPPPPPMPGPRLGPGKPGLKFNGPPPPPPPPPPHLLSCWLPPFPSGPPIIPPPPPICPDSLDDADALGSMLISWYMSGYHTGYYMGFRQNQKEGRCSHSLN
GST-fused wild-type SMN Tudor domain: residues 91-151 of Q16637
GST-fused SMN Tudor domain SIM mutant (2VA) (Q16637, form named): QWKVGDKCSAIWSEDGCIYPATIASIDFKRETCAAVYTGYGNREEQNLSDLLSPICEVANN
UniProt Q8TEQ6: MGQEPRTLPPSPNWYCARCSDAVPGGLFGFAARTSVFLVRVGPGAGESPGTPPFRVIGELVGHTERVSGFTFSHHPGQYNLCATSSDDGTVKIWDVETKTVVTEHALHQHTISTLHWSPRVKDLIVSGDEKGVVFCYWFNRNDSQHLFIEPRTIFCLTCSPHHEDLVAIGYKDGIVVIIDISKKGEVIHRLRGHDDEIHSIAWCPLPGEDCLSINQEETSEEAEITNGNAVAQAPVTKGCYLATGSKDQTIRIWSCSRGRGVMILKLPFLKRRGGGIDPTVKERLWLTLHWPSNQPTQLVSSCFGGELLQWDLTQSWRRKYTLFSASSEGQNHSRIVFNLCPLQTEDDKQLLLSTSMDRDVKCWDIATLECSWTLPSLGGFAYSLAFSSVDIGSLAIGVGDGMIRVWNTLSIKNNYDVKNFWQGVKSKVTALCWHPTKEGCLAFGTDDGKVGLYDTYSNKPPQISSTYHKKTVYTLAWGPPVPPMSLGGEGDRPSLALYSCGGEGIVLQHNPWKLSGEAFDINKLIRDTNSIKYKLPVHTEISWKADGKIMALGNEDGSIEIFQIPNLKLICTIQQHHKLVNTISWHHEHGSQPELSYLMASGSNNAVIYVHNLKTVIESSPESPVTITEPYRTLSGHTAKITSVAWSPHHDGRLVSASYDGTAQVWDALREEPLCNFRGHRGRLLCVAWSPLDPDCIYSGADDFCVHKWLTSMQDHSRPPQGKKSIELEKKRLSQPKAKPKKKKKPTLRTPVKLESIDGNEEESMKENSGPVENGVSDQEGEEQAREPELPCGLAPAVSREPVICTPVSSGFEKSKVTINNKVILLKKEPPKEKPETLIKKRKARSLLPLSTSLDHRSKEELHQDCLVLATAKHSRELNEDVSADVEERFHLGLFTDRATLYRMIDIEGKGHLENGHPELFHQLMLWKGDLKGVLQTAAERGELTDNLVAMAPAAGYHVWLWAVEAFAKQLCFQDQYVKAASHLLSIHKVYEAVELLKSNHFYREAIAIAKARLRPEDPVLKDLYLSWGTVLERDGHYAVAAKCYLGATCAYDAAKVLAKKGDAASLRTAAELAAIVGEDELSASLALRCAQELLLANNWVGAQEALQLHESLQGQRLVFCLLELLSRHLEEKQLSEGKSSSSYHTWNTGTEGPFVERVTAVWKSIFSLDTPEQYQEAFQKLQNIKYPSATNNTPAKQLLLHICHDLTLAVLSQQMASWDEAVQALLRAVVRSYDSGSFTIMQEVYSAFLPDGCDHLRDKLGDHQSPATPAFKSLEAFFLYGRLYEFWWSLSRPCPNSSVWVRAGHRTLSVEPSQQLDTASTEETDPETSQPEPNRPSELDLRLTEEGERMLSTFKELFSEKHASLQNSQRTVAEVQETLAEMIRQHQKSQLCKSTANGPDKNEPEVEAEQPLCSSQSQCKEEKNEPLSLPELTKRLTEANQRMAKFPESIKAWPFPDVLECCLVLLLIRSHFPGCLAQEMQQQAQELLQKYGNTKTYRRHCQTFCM
UniProt P63165, residues 1-97: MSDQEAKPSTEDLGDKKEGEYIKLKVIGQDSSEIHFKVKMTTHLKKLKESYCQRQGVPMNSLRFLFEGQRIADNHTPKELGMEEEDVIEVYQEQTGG
UniProt P61956: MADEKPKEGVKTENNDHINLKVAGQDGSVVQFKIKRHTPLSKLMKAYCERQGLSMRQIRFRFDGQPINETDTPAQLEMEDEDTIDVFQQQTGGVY
UniProt Q9UHI6: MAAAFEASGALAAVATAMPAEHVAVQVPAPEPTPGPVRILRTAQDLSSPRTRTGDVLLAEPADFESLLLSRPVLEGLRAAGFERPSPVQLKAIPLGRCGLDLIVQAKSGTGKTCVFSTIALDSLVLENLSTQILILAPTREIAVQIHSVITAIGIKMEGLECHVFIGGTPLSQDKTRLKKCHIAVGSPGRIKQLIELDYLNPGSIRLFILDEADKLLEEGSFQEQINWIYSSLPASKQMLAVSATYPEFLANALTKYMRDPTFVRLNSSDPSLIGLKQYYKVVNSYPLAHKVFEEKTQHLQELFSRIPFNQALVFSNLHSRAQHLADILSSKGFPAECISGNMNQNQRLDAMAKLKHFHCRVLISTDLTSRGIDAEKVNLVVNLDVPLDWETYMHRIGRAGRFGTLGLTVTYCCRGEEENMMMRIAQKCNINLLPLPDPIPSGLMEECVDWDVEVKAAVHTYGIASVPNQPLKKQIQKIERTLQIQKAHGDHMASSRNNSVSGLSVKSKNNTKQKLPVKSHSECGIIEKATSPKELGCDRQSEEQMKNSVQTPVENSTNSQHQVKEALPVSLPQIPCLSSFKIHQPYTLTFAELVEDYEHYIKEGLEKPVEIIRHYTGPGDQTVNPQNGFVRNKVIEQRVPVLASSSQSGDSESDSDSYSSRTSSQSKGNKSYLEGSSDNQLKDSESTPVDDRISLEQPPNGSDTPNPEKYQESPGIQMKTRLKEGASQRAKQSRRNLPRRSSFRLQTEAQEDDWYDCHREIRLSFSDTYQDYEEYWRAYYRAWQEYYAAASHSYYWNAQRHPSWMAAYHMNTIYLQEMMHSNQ

How the values were obtained:
[1] = biological target: GST-fused wild-type SMN Tudor domain (human) (UniProt Q16637); assay: pull-down; purified His-SUMO1 or His-SUMO-2 incubated with GST-fused SMN Tudor domain (WT or 2VA), pulled down with Glutathione-sepharose beads; immunoblot; 3 h at 4 °C in 50 mM Tris-HCl pH 7.5, 100 mM NaCl, 10 μm ZnCl2, 10% glycerol, 0.1 mM DTT; both purified
[2] = biological target: GST-fused SMN Tudor domain SIM mutant (2VA) (human) (UniProt Q16637); assay: as above
[3] = biological target: FLAG-tagged GEMIN5 wildtype (UniProt Q8TEQ6); assay: co-IP; lysates of HEK-293T cells transfected with FLAG-tagged SMN or GEMIN5, precipitated with anti-FLAG (M2) agarose beads; Western blot of the precipitates; naive HEK-293T as control
[4] = biological target: FLAG-tagged SMN-E134K (SMA mutant) (human) (UniProt Q16637); assay: as above
[5] = biological target: FLAG-tagged SMN wildtype (human) (UniProt Q16637); assay: as above

Substance	binding [1]	binding [2]	binding [3]	binding [4]	binding [5]
His-tagged SUMO-1 recombinant protein (from UniProt P63165 1-97)	binds	no binding	–	–	–
His-tagged SUMO-2 recombinant protein (from UniProt P61956 1-95)	binds	no binding	–	–	–
SMN found with FLAG-GEMIN5 (HEK-293T) (from UniProt Q16637 1-294)	–	–	binds	–	–
endogenous GEMIN3 (HEK-293T) (from UniProt Q9UHI6 1-824)	–	–	–	binds	binds
endogenous GEMIN5 (HEK-293T) (from UniProt Q8TEQ6 1-1508)	–	–	–	binds	binds
